Results on 32 sequences are retold here after publication PMC12820563, “FoxP3 forms a head-to-head dimer in vivo and stabilizes its multimerization on adjacent microsatellites”.

This is one part of the list.

The target in the experiment is T1, MBP-FoxP1dN (Mus musculus, UniProt P58462 326-579).
T1 sequence: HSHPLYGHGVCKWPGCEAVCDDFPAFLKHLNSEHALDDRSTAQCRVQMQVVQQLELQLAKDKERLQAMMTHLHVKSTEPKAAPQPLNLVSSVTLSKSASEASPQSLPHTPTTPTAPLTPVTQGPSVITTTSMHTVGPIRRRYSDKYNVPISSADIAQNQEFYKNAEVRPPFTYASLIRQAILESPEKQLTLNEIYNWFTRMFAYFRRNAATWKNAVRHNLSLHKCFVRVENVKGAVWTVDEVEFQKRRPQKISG
Kind of experiment: PD-seq (MBP pull-down with sequencing); 20 mM Tris-HCl pH 7.5, 100 mM NaCl, 1.5 mM MgCl2, 0.4 uM protein, 0.1 uM dsDNA library, 30 min, room temperature, amylose pull-down; high values mean tight binding. The note with it: protein: recombinant; tags: His6-MBP; chain copies: 2; dsDNA, one strand shown. The method, boiled down:
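A degenerate double-stranded DNA library, filled in with Klenow, was added at 0.1 µM to 0.4 µM His6-MBP-tagged mouse FoxP3 or FoxP1 fragment lacking the N-terminus, expressed in E. coli. Incubation lasted 30 min at room temperature in Tris pH 7.5 buffer with NaCl and MgCl2, after which complexes were collected on amylose resin, washed three times, digested with proteinase K to free the DNA, barcoded by PCR and sequenced by Illumina. Binding is the pooled-replicate reads-per-million enrichment of pull-down over input.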
Regarding “GATGATTGTTCTCCCAGCTGATGAATTCGGTCCGTCGAGTAAACAAATTTTCCTAATCTTTCTGTTCAAGCGCCATCTAC”, the binding signal was 0.782 RPM ratio (pull-down/input).

“GATGATTGTTCTCCCAGCTGATGAATTATGACTGTCGAGTAAACAAATTTTCCTAATCTTTCTGTTCAAGCGCCATCTAC”: the binding signal was 0.934 RPM ratio (pull-down/input).

On to “GATGATTGTTCTCCCAGCTGATGAATTTGTGGGTTCGAGTAAACAAATTTTCCTAATCTTTCTGTTCAAGCGCCATCTAC”, for which the binding signal is 0.976 RPM ratio (pull-down/input).

Take “GATGATTGTTCTCCCAGCTGATGAATTAACCAGATCGAGTAAACAAATTTTCCTAATCTTTCTGTTCAAGCGCCATCTAC”: the binding signal was 0.853 RPM ratio (pull-down/input).

For “GATGATTGTTCTCCCAGCTGATGAATTAACTGGATCGAGTAAACAAATTTTCCTAATCTTTCTGTTCAAGCGCCATCTAC”, the binding signal was 0.841 RPM ratio (pull-down/input).

As to “GATGATTGTTCTCCCAGCTGATGAATTACACGTCTCGAGTAAACAAATTTTCCTAATCTTTCTGTTCAAGCGCCATCTAC”, the binding signal is 1.17 RPM ratio (pull-down/input).

As to “GATGATTGTTCTCCCAGCTGATGAATTAATCAACTCGAGTAAACAAATTTTCCTAATCTTTCTGTTCAAGCGCCATCTAC”, the binding signal was 1.1 RPM ratio (pull-down/input).

With “GATGATTGTTCTCCCAGCTGATGAATTTAATCGTTCGAGTAAACAAATTTTCCTAATCTTTCTGTTCAAGCGCCATCTAC”, the binding signal is 0.959 RPM ratio (pull-down/input).

Consider “GATGATTGTTCTCCCAGCTGATGAATTCGGGGGGTCGAGTAAACAAATTTTCCTAATCTTTCTGTTCAAGCGCCATCTAC”, for which the binding signal is 0.806 RPM ratio (pull-down/input).

For “GATGATTGTTCTCCCAGCTGATGAATTGGAGTTCTCGAGTAAACAAATTTTCCTAATCTTTCTGTTCAAGCGCCATCTAC”, the binding signal was 0.855 RPM ratio (pull-down/input).

Regarding “GATGATTGTTCTCCCAGCTGATGAATTTCCATAATCGAGTAAACAAATTTTCCTAATCTTTCTGTTCAAGCGCCATCTAC”, the binding signal was 1.21 RPM ratio (pull-down/input).

With “GATGATTGTTCTCCCAGCTGATGAATTCTAGGAGTCGAGTAAACAAATTTTCCTAATCTTTCTGTTCAAGCGCCATCTAC”, the binding signal is 0.797 RPM ratio (pull-down/input).

Take “GATGATTGTTCTCCCAGCTGATGAATTTATCCACTCGAGTAAACAAATTTTCCTAATCTTTCTGTTCAAGCGCCATCTAC”: the binding signal is 1.11 RPM ratio (pull-down/input).

In the case of “GATGATTGTTCTCCCAGCTGATGAATTTCGAGCCTCGAGTAAACAAATTTTCCTAATCTTTCTGTTCAAGCGCCATCTAC”, the binding signal was 0.836 RPM ratio (pull-down/input).

As for “GATGATTGTTCTCCCAGCTGATGAATTCCAGCTTTCGAGTAAACAAATTTTCCTAATCTTTCTGTTCAAGCGCCATCTAC”, the binding signal is 0.886 RPM ratio (pull-down/input).

Consider “GATGATTGTTCTCCCAGCTGATGAATTGAAGTACTCGAGTAAACAAATTTTCCTAATCTTTCTGTTCAAGCGCCATCTAC”, for which the binding signal was 0.796 RPM ratio (pull-down/input).

With “GATGATTGTTCTCCCAGCTGATGAATTGGCCAAATCGAGTAAACAAATTTTCCTAATCTTTCTGTTCAAGCGCCATCTAC”, the binding signal is 0.996 RPM ratio (pull-down/input).

In the case of “GATGATTGTTCTCCCAGCTGATGAATTGGACATTTCGAGTAAACAAATTTTCCTAATCTTTCTGTTCAAGCGCCATCTAC”, the binding signal was 0.914 RPM ratio (pull-down/input).

As to “GATGATTGTTCTCCCAGCTGATGAATTGGGACCATCGAGTAAACAAATTTTCCTAATCTTTCTGTTCAAGCGCCATCTAC”, the binding signal was 0.875 RPM ratio (pull-down/input).

For the sequence “GATGATTGTTCTCCCAGCTGATGAATTCGTGTCGTCGAGTAAACAAATTTTCCTAATCTTTCTGTTCAAGCGCCATCTAC”, the binding signal is 0.983 RPM ratio (pull-down/input).

As to “GATGATTGTTCTCCCAGCTGATGAATTTTCTCGGTCGAGTAAACAAATTTTCCTAATCTTTCTGTTCAAGCGCCATCTAC”, the binding signal was 0.829 RPM ratio (pull-down/input).

On to “GATGATTGTTCTCCCAGCTGATGAATTATACCATTCGAGTAAACAAATTTTCCTAATCTTTCTGTTCAAGCGCCATCTAC”, for which the binding signal was 0.975 RPM ratio (pull-down/input).

Regarding “GATGATTGTTCTCCCAGCTGATGAATTTATCGTTTCGAGTAAACAAATTTTCCTAATCTTTCTGTTCAAGCGCCATCTAC”, the binding signal was 1.08 RPM ratio (pull-down/input).

As for “GATGATTGTTCTCCCAGCTGATGAATTCACAAACTCGAGTAAACAAATTTTCCTAATCTTTCTGTTCAAGCGCCATCTAC”, the binding signal is 1.06 RPM ratio (pull-down/input).

For the sequence “GATGATTGTTCTCCCAGCTGATGAATTAGAAAACTCGAGTAAACAAATTTTCCTAATCTTTCTGTTCAAGCGCCATCTAC”, the binding signal is 0.959 RPM ratio (pull-down/input).

As to “GATGATTGTTCTCCCAGCTGATGAATTTGAAGTCTCGAGTAAACAAATTTTCCTAATCTTTCTGTTCAAGCGCCATCTAC”, the binding signal was 0.792 RPM ratio (pull-down/input).

With “GATGATTGTTCTCCCAGCTGATGAATTCGGTTCTTCGAGTAAACAAATTTTCCTAATCTTTCTGTTCAAGCGCCATCTAC”, the binding signal is 0.845 RPM ratio (pull-down/input).

For the sequence “GATGATTGTTCTCCCAGCTGATGAATTGAGAAGCTCGAGTAAACAAATTTTCCTAATCTTTCTGTTCAAGCGCCATCTAC”, the binding signal is 0.789 RPM ratio (pull-down/input).

In the case of “GATGATTGTTCTCCCAGCTGATGAATTACTGTGGTCGAGTAAACAAATTTTCCTAATCTTTCTGTTCAAGCGCCATCTAC”, the binding signal was 1.06 RPM ratio (pull-down/input).

As to “GATGATTGTTCTCCCAGCTGATGAATTCAACCGCTCGAGTAAACAAATTTTCCTAATCTTTCTGTTCAAGCGCCATCTAC”, the binding signal is 0.796 RPM ratio (pull-down/input).

On to “GATGATTGTTCTCCCAGCTGATGAATTGTGTATCTCGAGTAAACAAATTTTCCTAATCTTTCTGTTCAAGCGCCATCTAC”, for which the binding signal was 1.67 RPM ratio (pull-down/input).

Turning to “GATGATTGTTCTCCCAGCTGATGAATTCGTACCGTCGAGTAAACAAATTTTCCTAATCTTTCTGTTCAAGCGCCATCTAC”, the binding signal is 0.876 RPM ratio (pull-down/input).
